According to the RNAGym collection of RNA variant scans (doi:10.1093/nar/gkz1192):
Read counts are not given, so values of variants with three or more changes are uncertain.

B1: CPEB3 Ribozyme (parent)
chain: UAACAGGGGGCCACAGCAGAAGCGUUCACGUCGCAGCCCCUGUCAGAUUCUGGUGAAUCUGCGAAUUCUGCUGUAUAUCUC

Variants of: B1
Test: self-cleavage, relative activity (ratio to wild type); higher = more cleavage; in vitro, sequencing
Method in brief: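 Libraries of CPEB3 self-cleaving ribozyme mutants came from rounds of error-prone PCR and carried barcodes, which DNA sequencing matched to variants. In vitro transcription used T7 RNA polymerase at 37°C for 5 hours, with a further 15 min in DNase I before EDTA stopped the reaction; the ribozymes cleaved during both steps. The RNA was reverse transcribed with template switching and sequenced on Illumina. Relative activity is the cleaved/total read fraction of a variant divided by that of the unmutated ribozyme, averaged over three batches with at least 5 reads.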

Variant | self-cleavage
A13U A28G U48C G53U | 0.3
A13U A18U A35G G52A C62G | 0.13
A13G C17U G33A U48C A56G | 0.05
A13G U25C U31A U49G A65U A75G | 0
A13G A20G U41C | 0.71
A13U A18G A28U U41A | 0.18
A13G A20U C40A C50A | 0.15
A13G U31A A45G U49A U66C | 0.15
A13G U26C U51A | 0.26
A13U A18U U69C | 0.27
A13G A18U U51C A57G U80C | 0.26
A13G A28G A56G U67C A75U U76C | 0.03
A13G U31C U43C U51C A77U | 0.1
A13G U31C A35G A56U C71U | 0
A13G A20G G30U | 0.05
A13G A20G G30C | 0.3
A13G C29U A64C | 0.43
A13U A20G U41A | 0.26
A13U A18G U72C | 0.5
A13U A20G A65C | 0.31
A13G U31C A64G U69A | 0.11

Variant | self-cleavage
A13G A28G U31A A64U U72C | 0.08
A13G U26C U43G C50U U72C | 0.08
A13G A35G U41C A57G U69C | 0.16
A13G A20C G24A G52C U69A U80A | 0.34
A13G A47G U60C U66A | 0.23
A13U A15G C23A U26C | 0.24
A13G U26A G30U | 0.12
A13G U43A A57G | 1.01
A13G U48C G55U A56U | 0.15
A13G A20U U26C G42A | 0.22
A13U A15U U43C C79U | 0.67
A13U A18U U26C U41C A75G | 0.08
A13U A18U U67C | 0.14
A13G A45G U49A A56G A77U U80A | 0.55
A13G U41G G52A U80C | 0.2
A13G U69C U72C | 0.35
A13G A20C A45G G46U U51A U69A U78A | 0.08
A13G A21G U25C U74C | 0.11
A13G A20G C38A U43C | 0.06
A13G C29A U72C | 0.34
A13G A28C U31A U48C G63A | 0.28

Variant | self-cleavage
A13G U41A U49C | 0.19
A13U A18U A28U U41C A56U | 0.09
A13G A20G U26C U60C | 0.3
A13G A35G G55C | 0.7
A13U A15G C17G A64G | 0.46
A13G A20G A45U G53A U72C | 0.22
A13G G53U U69A | 0.39
A13G A18U A28U A35G | 0.1
A13G A45G U48A U69C U80A | 0.13
A13G A18G A56G U60C U80C | 0.11
A13G U51C C62U | 0.28
A13G U51C A56G U74C A75G | 0.57
A13U A15G U31G C34U A45G U66C | 0.07
A13G U58C G73A | 0.82
A13G U25C U26A U43C A45G U66C | 0.37
A13G A35G U49C | 0.15
A13G U72A U80A | 0.63
A13U A15U C23A A45U U67G C68U | 0.07
A13U A18U A28U C44A U60C | 0.12
A13G U26G A45G U72C | 0.08
A13G U25G U54C U67C C71U | 0.05

Variant | self-cleavage
A13G C29U U67A | 0.06
A13G A21G U72A U80C | 0.35
A13G G19A C23U A65U | 0.13
A13G U25C C29U C32A U41C A77U | 0.24
A13G U51A G52C U69A U78C | 0.51
A13G U25C A47G U58C U72A | 0.17
A13G A35C U48G C50G U51C U67A | 0.2
A13G U31C A47G | 0.29
A13U A15G U26C U67C U72C U76A | 0.12
A13G A28U A45G | 0.21
A13G A45C U54C | 0.23
A13G G19C A20U U60G U66A | 0.05
A13U A15G A35G A75G | 0.96
A13G C34U U43A U67A A77U | 0.09
A13G U60C U67C | 0.38
A13G C29U C38U A56U | 0.08
A13G U25C U26C U43A A56G C79U | 0.32
A13U A18G U43C U58C U67A U78C | 0.22
A13G C32U A47C | 0.07
A13G U26C A56U U69A | 0.06
